195 variants from a collection of fitness landscapes (doi:10.1126/science.1257360) can be followed below.

The labels stand for the following.
B1: PhoQ; a variant is named by its letters at X, in order, P23837 (parent)
chain: MKKLLRLFFPLSLRVRFLLATAAVVLVLSLAYGMVALIGYSVSFDKTTFRLLRGESNLFYTLAKWENNKLHVELPENIDKQSPTMTLIYDENGQLLWAQRDVPWLMKMIQPDWLKSNGFHEIEADVNDTSLLLSGDHSIQQQLQEVREDDDDAEMTHSVAVNVYPATSRMPKLTIVVVDTIPVELKSSYMVWSWFIYVLSANLLLVIPLLWVAAWWSLRPIEALAKEVRELEEHNRELLNPATTRELTSLVRNLNRLLKSERERYDKYRTTLTDLTHSLKTPLXXLQXXLRSLRSEKMSVSDAEPVMLEQISRISQQIGYYLHRASMRGGTLLSRELHPVAPLLDNLTSALNKVYQRKGVNISLDISPEISFVGEQNDFVEVMGNVLDNACKYCLEFVEISARQTDEHLYIVVEDDGPGIPLSKREVIFDRGQRVDTLRPGQGVGLAVAREITEQYEGKIVAGESMLGGARMEVIFGRQHSAPKDE

The list shows a part of the results.

This assay covers variants of B1. As to the kind of experiment: enrichment ratio after two sorts for PhoP signalling (ratio (wild type AVST 3.29)); higher = more functional. As to conditions: with PhoP (E. coli).
Regarding AVIC, the enrichment ratio was determined as 1.38.
For the variant MHLT, the enrichment ratio is not above 0.25.
The figure for SCLL is 7.53; for FKMS it is 0.264; for DAVT it is not above 0.25.
Turning to AMNL, the enrichment ratio turned out to be 3.05.
The figure for QYGW is not above 0.25.
Regarding NCSV, the enrichment ratio was not above 0.25.
The same measure for DNTV: not above 0.25; for GMLP: not above 0.25.
On to VDPT, for which the enrichment ratio was not above 0.25.
On to VFHN, for which the enrichment ratio is not above 0.25.
The figure for FDMW is not above 0.25; for NQFY it is 0.914.
For VHIK, the enrichment ratio was not above 0.25.
The same measure for TPEP: not above 0.25; for VIAP: 0.39; for PVVI: not above 0.25.
The figure for VSQN is not above 0.25.
The figure for DNAP is not above 0.25; for HNKI it is not above 0.25; for YCMK it is not above 0.25.
On to KGRE, for which the enrichment ratio is not above 0.25.
For WTLM, the enrichment ratio was 1.03.
The figure for HSQK is not above 0.25.
The same measure for DSNK: not above 0.25; for PFQF: not above 0.25.
In the case of MEVK, the enrichment ratio was not above 0.25.
The figure for NDHW is not above 0.25; for PNNG it is not above 0.25; for AGFD it is not above 0.25.
The same measure for NVPY: not above 0.25; for RHDS: not above 0.25.
Turning to GDQT, the enrichment ratio is not above 0.25.
As to FAKL, the enrichment ratio is 0.467.
The figure for PYTM is not above 0.25.
For the variant GANF, the enrichment ratio was not above 0.25.
The figure for ATSR is 0.713; for VEVM it is not above 0.25; for NCLE it is not above 0.25.
The figure for EEQR is not above 0.25; for LHHI it is not above 0.25; for FQYM it is not above 0.25.
The figure for LFHQ is not above 0.25.
For the variant WRAQ, the enrichment ratio was not above 0.25.
The figure for SYNT is not above 0.25; for YMKC it is not above 0.25; for KNWA it is not above 0.25.
The figure for VPNC is not above 0.25; for AHSA it is not above 0.25.
The figure for VKCS is not above 0.25; for ALEW it is not above 0.25; for CLSS it is 1.71.
For the variant QYIV, the enrichment ratio was not above 0.25.
Take FRPQ: the enrichment ratio is not above 0.25.
The figure for PDTL is not above 0.25; for HMWR it is not above 0.25; for GFWP it is not above 0.25.
For QDAC, the enrichment ratio is not above 0.25.
As to VVIW, the enrichment ratio was not above 0.25.
The figure for NHTN is not above 0.25; for YDYE it is not above 0.25.
The same measure for YPHA: not above 0.25; for GWNP: not above 0.25; for LVVP: not above 0.25.
Consider VYRV, for which the enrichment ratio was not above 0.25.
The same measure for SSFH: not above 0.25; for RDTA: not above 0.25; for GMLT: not above 0.25.
As for MRWH, the enrichment ratio was not above 0.25.
Consider EKYM, for which the enrichment ratio is not above 0.25.
Regarding MTCG, the enrichment ratio was not above 0.25.
For the variant STFR, the enrichment ratio was not above 0.25.
With IMQG, the enrichment ratio is not above 0.25.
The figure for PHCI is not above 0.25.
FTPG: the enrichment ratio was not above 0.25.
The figure for WKVQ is not above 0.25; for MWYN it is not above 0.25; for SGQG it is 2.54.
The same measure for QFML: not above 0.25; for PKHA: not above 0.25.
The same measure for NPAA: not above 0.25; for KVID: not above 0.25; for NPSL: not above 0.25.
For PLIS, the enrichment ratio is not above 0.25.
For TTYT, the enrichment ratio was 2.48.
For the variant CRFP, the enrichment ratio is not above 0.25.
Regarding SIWL, the enrichment ratio was not above 0.25.
Take DQTF: the enrichment ratio was not above 0.25.
The same measure for NWVH: not above 0.25.
Take LQEV: the enrichment ratio is not above 0.25.
The same measure for WLTY: not above 0.25; for SSER: not above 0.25; for GCLE: not above 0.25.
The same measure for MYCY: not above 0.25.
Turning to PNSP, the enrichment ratio is not above 0.25.
On to EMHH, for which the enrichment ratio was not above 0.25.
Turning to QLKQ, the enrichment ratio was not above 0.25.
The same measure for TWIQ: 4.49.
The same measure for RFIQ: not above 0.25; for PKQR: not above 0.25.
Take SDFD: the enrichment ratio is not above 0.25.
Regarding ADWR, the enrichment ratio was not above 0.25.
The figure for SGEA is not above 0.25.
The figure for DKIE is not above 0.25.
The figure for RMIF is not above 0.25; for REIG it is not above 0.25.
As for KCNW, the enrichment ratio is not above 0.25.
Consider TERS, for which the enrichment ratio is not above 0.25.
The figure for SVQD is not above 0.25.
For the variant KIWP, the enrichment ratio was not above 0.25.
The same measure for NAAR: not above 0.25.
FHDR: the enrichment ratio is not above 0.25.
The figure for KIPR is not above 0.25; for HWFM it is not above 0.25.
Regarding FCAM, the enrichment ratio was not above 0.25.
The figure for SWQP is not above 0.25; for ACPS it is not above 0.25.
The same measure for YEQE: not above 0.25; for LSVT: not above 0.25.
The figure for GQVS is 1.28; for FFGD it is not above 0.25.
For the variant LPSK, the enrichment ratio is not above 0.25.
The figure for PYFA is not above 0.25; for YTTN it is not above 0.25; for HTCT it is not above 0.25.
The same measure for YMNP: not above 0.25.
AQTL: the enrichment ratio was determined as 3.33.
Take IQGN: the enrichment ratio is not above 0.25.
The same measure for EYAT: not above 0.25.
The figure for MGCK is 3.89; for AILC it is 7.86; for EHDS it is not above 0.25.
Regarding FKHK, the enrichment ratio was not above 0.25.
The same measure for RMIG: 0.897; for SITA: 20.
In the case of VFNP, the enrichment ratio was determined as 0.444.
The same measure for ERHG: not above 0.25; for MKRC: not above 0.25; for FSKK: not above 0.25.
The same measure for VVYR: not above 0.25.
Take KFNM: the enrichment ratio is not above 0.25.
Consider AVAV, for which the enrichment ratio turned out to be 6.08.
Regarding KCRW, the enrichment ratio is not above 0.25.
The same measure for YKFM: not above 0.25; for PESM: not above 0.25.
In the case of KWYY, the enrichment ratio was not above 0.25.
The figure for FWFT is not above 0.25; for EPVI it is not above 0.25; for DCVL it is not above 0.25.
The figure for KVVS is not above 0.25.
The figure for IHNY is not above 0.25; for STGD it is 0.301.
In the case of NGFL, the enrichment ratio is not above 0.25.
The figure for ALFF is not above 0.25; for MSNL it is not above 0.25; for HYGQ it is not above 0.25.
Take GKMD: the enrichment ratio was not above 0.25.
Take QFEL: the enrichment ratio is not above 0.25.
The figure for QETM is not above 0.25; for SCAY it is 4.94.
Regarding LIPY, the enrichment ratio was not above 0.25.
With QSHG, the enrichment ratio came to 0.858.
As to DWQL, the enrichment ratio is not above 0.25.
The figure for KRKD is not above 0.25.
SESH: the enrichment ratio was found to be 13.1.
The same measure for GNRI: not above 0.25; for AHHR: not above 0.25; for SICQ: 27.6.
The figure for ESLS is not above 0.25; for GWPS it is not above 0.25; for LAPK it is not above 0.25.
Consider VHEG, for which the enrichment ratio was not above 0.25.
The figure for GSGS is not above 0.25; for PNNE it is not above 0.25.
The same measure for QPHQ: not above 0.25; for QHGP: not above 0.25; for KFHQ: not above 0.25.
Consider TKLS, for which the enrichment ratio was found to be 19.9.
On to AKMN, for which the enrichment ratio was 0.317.
The same measure for TITY: not above 0.25.
Consider DLKL, for which the enrichment ratio was not above 0.25.
The same measure for DWRL: not above 0.25; for ECLP: not above 0.25; for KFSQ: not above 0.25.
For ICME, the enrichment ratio was not above 0.25.
For VFCR, the enrichment ratio is not above 0.25.
For INFL, the enrichment ratio is not above 0.25.
The figure for VNWC is not above 0.25.
On to NVPP, for which the enrichment ratio was not above 0.25.
INDD: the enrichment ratio was not above 0.25.
The same measure for YISF: 0.417.
For the variant YCMY, the enrichment ratio was not above 0.25.
The figure for IDCI is not above 0.25; for MQCW it is not above 0.25.
